According to patent EP0133934A2, “Pharmacologically active 1,3,4-thiadiazol-(3,2-a)-thieno-(2,3-d)-pyrimidin-5-(H)one derivatives” (NIKEPHARMA S.r.l., priority 1983, dated 1985):
At least one read-out could not be matched to a standard name with certainty.

Experiments:
[1] = tested on: Writhing test induced by phenyl-benzoquinone; assay: Phenylbenzoquinone writhing test in the rat; format: in vivo; settings: os, controls 55.1 ± 1.45
Protocol: The activity tests were carried out on male Spra gue-Dawley rats weighing 200+20 g and on male Swiss mice weighing 26+3 g.
The test compounds were administered orally by means of gastroesophageal tube, in the form of a suspen sion in a 10 ml/kg mucilage of 5% gum arabic; and intraperitoneally in the form of an aqueous suspen sion added with a few drops of Tween 80, in the con stant volume of 10 ml/kg.

acetic acid peritonitis = assay: Anti-exudative activity: acetic acid peritonitis in the rat; format: in vivo; settings: Table 4, os, controls 2.91 ± 0.12
Protocol: The test was carried out according to the procedure described by Arrigoni-Martelli (Boll.Chim. Far. 107, 29, 1968). This method is based upon the evaluation of the anti-exudative effect of a drug at the peritoneal level, following a intraperitoneal injection of 10 ml/kg of a 0.5% acetic acid solution.
The compounds under test were administered oral ly one hour before the inflammatory agent; 30 minutes after the treatment the animals were killed and the fluid from the peritoneal cavity was drawn and measured.
The test compounds were administered by oral route 1 hour before intraperitoneal injection of acetic acid (10 ml/kg of a 0.5% solution).
The anti-exudative activity was determined on the basis of the peritoneal exudate of the treated animals, in comparison with the controls.

[2] = 5 mg/kg, 1 hour before phenylbenzoquinone

Compound: O=c1c2c3c(sc2nc2sc(-c4ccccc4)nn12)CCCC3 [HA 33]
- N° OF WRITHINGS in 10 MINUTES ([1]; 0.5 mg/kg): 40.2 ± 2.14
- N° OF WRITHINGS in 10 MINUTES [1, 2]: 16.5 ± 1.43

Compound: Cc1nn2c(=O)c3c4c(sc3nc2s1)CCC4 [HA 30]
- N° OF WRITHINGS in 10 MINUTES ([1]; 0.5 mg/kg): 31.8 ± 1.98
- N° OF WRITHINGS in 10 MINUTES [1, 2]: 35.3 ± 1.64

Compound: CCOc1ccccc1-c1nn2c(=O)c3c4c(sc3nc2s1)CCCC4 [HA 36]
- N° OF WRITHINGS in 10 MINUTES ([1]; 0.5 mg/kg): 43.0 ± 1.80
- N° OF WRITHINGS in 10 MINUTES [1, 2]: 22.0 ± 1.14

Compound: Cc1cccc(Nc2ccccc2C(=O)O)c1C [MFA, mephenamic acid]
- N° OF WRITHINGS in 10 MINUTES [1, 2]: 41.9 ± 2.88
- N° OF WRITHINGS in 10 MINUTES ([1]; 10 mg/kg): 36.8 ± 2.24

Compound: CCc1nn2c(=O)c3c4c(sc3nc2s1)CCCC4 [HA 32]
- N° OF WRITHINGS in 10 MINUTES ([1]; 0.5 mg/kg): 28.6 ± 1.03
- N° OF WRITHINGS in 10 MINUTES [1, 2]: 13.3 ± 2.06

Compound: CSc1nn2c(=O)c3c4c(sc3nc2s1)CCCC4 [HA 34, 2-Methyl-mercapto-6,7,8,9-tetrahydro-5H[1]-benao-thieno[2,3-d]-1,3,4-thiadiazole[3,2-a]pyrimidin-5[H]-one]
- N° OF WRITHINGS in 10 MINUTES ([1]; 0.5 mg/kg): 41.9 ± 1.68
- N° OF WRITHINGS in 10 MINUTES [1, 2]: 10.5 ± 1.72

Compound: COc1ccc2c(c1)c(CC(=O)O)c(C)n2C(=O)c1ccc(Cl)cc1 [INDO, Indomethacin]
- PERITONEAL EXUDATE ml ± E.S. (acetic acid peritonitis; 1 mg/kg): 0.70 ± 0.10 mL
- PERITONEAL EXUDATE ml ± E.S. (acetic acid peritonitis; 10 mg/kg): 0.18 ± 0.02 mL
